The test deals with T1, Full-length human low-density lipoprotein receptor-related protein 1 (LRP1) (human, UniProt Q07954 20-4544).
T1 construct: Written here as one chain; source: purified from placenta
Put plainly: SPR; full-length LRP1 coupled to the chip (Biacore 3000); single-cycle kinetic titration of tau forms (3.8, 11.5, 34.4, 103.3, 310 nM, 3.5-min injections), with Ca2+; Req from a pseudo first-order fit plotted against concentration, KD by nonlinear regression. The settings on record: both partners purified. A general note: Surface plasmon resonance follows binding to a sensor surface in real time, without labels.

2 molecules from article PMC8164048, “Regulation of tau internalization, degradation, and seeding by LRP1 reveals multiple pathways for tau catabolism” (The Journal of Biological Chemistry, 2021) can be followed below.

A word on the Kd: it is the concentration at which binding is half-saturated.

T1 sequence (Q07954 20-4544): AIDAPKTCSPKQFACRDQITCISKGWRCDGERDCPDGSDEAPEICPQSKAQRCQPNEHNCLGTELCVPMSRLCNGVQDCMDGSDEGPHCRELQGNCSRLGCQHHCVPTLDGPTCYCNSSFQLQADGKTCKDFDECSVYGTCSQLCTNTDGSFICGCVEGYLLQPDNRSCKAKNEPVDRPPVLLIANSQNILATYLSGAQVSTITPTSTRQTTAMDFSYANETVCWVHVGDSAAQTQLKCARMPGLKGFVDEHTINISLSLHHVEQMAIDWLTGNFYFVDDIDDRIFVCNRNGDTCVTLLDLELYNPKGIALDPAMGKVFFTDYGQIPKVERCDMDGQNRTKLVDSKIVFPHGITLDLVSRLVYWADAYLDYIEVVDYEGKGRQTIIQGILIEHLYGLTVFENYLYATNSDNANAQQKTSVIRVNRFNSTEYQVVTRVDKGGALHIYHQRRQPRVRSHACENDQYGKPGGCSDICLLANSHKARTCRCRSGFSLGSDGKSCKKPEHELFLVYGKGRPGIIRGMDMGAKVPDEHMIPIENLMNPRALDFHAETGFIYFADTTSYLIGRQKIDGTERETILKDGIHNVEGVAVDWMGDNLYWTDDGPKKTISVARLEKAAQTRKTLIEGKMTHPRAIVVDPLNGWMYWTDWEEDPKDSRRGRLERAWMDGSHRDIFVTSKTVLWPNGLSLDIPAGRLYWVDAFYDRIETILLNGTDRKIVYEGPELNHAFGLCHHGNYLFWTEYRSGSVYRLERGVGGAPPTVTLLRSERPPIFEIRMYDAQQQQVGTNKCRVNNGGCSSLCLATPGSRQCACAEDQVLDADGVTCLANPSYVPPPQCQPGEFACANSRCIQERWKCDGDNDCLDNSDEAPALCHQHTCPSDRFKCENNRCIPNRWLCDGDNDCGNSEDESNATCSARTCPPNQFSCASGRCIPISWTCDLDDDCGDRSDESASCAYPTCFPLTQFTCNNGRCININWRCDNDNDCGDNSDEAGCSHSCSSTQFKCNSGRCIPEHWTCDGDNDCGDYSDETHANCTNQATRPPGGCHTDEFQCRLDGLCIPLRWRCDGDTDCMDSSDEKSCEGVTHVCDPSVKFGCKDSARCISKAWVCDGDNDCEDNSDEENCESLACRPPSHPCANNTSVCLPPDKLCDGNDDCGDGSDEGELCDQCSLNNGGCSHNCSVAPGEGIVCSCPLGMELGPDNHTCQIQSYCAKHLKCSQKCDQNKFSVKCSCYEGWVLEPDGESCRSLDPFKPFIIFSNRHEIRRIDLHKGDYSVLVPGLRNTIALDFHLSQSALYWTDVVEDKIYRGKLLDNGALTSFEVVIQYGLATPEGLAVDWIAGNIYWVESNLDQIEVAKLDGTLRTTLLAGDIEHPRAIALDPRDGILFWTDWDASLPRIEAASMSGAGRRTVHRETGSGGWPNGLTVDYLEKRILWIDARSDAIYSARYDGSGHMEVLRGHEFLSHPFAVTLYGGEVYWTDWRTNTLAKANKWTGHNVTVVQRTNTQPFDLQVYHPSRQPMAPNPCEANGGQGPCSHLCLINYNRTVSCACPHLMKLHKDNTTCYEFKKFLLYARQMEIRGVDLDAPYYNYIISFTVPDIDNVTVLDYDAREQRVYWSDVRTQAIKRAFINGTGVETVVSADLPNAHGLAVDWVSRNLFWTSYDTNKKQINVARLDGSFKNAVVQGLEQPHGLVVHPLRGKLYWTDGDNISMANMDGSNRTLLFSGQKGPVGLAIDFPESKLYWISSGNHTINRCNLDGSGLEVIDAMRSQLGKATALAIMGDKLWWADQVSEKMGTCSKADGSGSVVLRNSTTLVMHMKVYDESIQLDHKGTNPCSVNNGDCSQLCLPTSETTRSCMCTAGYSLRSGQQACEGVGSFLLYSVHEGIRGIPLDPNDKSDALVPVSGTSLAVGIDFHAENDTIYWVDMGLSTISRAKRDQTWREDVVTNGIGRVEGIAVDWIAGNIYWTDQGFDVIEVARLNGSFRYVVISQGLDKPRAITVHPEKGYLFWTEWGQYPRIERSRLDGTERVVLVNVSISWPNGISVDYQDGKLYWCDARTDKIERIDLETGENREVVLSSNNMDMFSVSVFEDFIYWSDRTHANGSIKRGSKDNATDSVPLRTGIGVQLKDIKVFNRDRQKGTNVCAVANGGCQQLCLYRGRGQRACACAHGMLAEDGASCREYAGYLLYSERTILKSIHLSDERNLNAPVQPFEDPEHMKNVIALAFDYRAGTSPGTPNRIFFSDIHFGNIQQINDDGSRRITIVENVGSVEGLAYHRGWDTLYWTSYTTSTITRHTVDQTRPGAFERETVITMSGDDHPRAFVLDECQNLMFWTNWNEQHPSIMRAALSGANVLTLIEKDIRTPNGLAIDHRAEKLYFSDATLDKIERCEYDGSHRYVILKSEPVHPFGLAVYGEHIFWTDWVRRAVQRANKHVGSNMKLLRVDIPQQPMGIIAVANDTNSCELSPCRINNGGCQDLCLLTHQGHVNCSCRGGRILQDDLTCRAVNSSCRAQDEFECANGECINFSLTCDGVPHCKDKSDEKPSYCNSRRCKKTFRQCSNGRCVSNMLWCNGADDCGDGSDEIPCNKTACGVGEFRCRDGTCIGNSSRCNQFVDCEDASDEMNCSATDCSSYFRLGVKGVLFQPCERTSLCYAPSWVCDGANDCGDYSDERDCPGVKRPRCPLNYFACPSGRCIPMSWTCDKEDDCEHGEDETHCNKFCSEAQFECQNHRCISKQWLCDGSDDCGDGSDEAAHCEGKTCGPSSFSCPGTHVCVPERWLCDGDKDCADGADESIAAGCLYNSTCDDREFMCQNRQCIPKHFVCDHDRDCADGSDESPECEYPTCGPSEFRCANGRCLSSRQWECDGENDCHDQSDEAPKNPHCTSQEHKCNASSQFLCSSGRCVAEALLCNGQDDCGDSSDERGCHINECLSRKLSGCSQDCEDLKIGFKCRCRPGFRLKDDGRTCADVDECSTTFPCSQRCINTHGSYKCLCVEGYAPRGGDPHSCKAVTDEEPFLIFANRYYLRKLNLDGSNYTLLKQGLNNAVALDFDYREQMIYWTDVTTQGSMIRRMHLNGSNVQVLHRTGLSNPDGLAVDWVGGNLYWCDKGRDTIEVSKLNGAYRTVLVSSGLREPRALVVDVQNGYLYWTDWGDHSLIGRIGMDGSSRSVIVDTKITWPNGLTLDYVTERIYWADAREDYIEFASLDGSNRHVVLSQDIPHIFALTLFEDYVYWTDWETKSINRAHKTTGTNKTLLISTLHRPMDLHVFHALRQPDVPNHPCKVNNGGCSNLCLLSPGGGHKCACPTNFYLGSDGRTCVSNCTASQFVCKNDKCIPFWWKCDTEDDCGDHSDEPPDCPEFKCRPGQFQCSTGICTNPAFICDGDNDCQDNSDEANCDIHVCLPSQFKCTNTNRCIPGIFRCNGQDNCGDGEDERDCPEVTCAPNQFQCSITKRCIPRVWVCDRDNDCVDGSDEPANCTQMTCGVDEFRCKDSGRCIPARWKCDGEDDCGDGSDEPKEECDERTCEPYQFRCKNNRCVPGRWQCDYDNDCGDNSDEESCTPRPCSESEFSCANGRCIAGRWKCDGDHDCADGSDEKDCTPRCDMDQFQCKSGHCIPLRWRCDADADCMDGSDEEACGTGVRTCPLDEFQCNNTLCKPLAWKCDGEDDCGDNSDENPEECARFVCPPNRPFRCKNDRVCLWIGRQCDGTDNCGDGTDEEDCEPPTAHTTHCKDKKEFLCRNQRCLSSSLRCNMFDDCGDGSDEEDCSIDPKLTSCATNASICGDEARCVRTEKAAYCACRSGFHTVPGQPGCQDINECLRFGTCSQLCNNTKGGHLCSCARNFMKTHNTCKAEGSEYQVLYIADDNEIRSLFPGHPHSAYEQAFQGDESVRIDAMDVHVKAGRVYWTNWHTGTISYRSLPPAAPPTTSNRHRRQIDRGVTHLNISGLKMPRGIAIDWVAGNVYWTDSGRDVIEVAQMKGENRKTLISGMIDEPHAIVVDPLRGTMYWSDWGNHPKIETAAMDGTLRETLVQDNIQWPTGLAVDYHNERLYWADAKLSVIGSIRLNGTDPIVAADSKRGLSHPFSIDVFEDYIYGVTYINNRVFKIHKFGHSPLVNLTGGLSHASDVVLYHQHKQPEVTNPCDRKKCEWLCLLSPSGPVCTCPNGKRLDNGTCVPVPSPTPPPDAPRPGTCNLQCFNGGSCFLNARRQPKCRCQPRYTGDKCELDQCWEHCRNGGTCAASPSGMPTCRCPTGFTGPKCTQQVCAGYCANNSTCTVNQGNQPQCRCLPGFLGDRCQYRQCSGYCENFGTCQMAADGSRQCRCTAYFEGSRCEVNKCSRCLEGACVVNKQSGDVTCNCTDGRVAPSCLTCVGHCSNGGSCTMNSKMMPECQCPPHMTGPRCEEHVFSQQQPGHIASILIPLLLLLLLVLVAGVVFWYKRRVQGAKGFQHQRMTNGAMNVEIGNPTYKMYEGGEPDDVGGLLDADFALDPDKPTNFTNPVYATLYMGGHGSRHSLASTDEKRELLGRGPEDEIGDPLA

B1: tau microtubule-binding domain (MBD; R1-R4, leu243-glu372) (domain or fragment)
chain: not shown
notes: also called tau MBD; source: bought: R&D Systems (SP-496)
For the molecule B1, the dissociation constant (Kd) was 73 ± 18 nM.

B2: tau, 2N3R isoform (natural protein)
chain: not shown
notes: also called 3R tau; source: E. coli, purified
For B2, the Kd came out at 278 ± 55 nM.
